# Source: article PMC4336329 (PLoS ONE, 2015)
# The whole screen tested about 310,000 compounds, of which about 14,000 (4.5%) showed an effect of 50% or more. The effect is printed as a negative number. This is one part of the list.
# Molecular target: human ether-à-go-go-related gene (hERG) potassium channel (human, UniProt Q12809)
# Test: primary screen, population patch clamp on CHO cells stably expressing hERG
# 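Further: peak tail current of the secondary pulse compared with the same well before compound.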
# Chain of human ether-à-go-go-related gene (hERG) potassium channel (Q12809 whole entry, looked up): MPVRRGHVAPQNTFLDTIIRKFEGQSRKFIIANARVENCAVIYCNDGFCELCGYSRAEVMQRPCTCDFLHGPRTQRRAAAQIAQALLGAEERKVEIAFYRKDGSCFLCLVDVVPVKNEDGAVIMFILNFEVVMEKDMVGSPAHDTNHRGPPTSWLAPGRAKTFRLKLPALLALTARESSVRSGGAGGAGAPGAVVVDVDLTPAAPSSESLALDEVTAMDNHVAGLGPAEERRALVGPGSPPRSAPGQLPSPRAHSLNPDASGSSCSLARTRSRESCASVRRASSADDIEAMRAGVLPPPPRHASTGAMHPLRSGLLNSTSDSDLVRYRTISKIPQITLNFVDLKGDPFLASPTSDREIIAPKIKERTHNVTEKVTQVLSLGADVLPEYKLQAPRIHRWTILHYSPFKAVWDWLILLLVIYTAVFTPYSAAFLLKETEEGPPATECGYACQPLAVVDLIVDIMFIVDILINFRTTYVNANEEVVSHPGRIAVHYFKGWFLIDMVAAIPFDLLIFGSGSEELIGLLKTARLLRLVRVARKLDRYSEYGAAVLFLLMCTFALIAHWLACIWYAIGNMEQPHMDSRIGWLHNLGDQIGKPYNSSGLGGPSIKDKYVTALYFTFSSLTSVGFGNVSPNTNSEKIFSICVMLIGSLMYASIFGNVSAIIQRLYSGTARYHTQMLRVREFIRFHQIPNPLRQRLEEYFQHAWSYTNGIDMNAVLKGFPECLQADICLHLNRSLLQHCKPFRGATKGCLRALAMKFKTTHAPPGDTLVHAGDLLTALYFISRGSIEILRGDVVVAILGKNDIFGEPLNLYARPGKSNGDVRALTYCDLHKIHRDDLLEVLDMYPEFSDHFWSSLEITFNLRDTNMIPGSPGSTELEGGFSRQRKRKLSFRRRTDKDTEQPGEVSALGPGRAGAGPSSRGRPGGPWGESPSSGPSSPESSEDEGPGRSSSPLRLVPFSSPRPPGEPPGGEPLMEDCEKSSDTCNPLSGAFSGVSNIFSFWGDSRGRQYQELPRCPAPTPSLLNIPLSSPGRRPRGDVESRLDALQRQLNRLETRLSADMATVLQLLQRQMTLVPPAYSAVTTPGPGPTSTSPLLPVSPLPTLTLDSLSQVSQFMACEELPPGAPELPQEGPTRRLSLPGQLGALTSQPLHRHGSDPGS
row,SMILES,"hERG current change (%, negative = inhibition) at 10uM"
1,Cc1nc(C(=O)Nc2ccccc2)sc1C1(C)CC(c2cccnc2)=NO1 (centres unmarked),-13.7%
2,COc1ccc(C(=O)NC(=S)Nc2ccc([N+](=O)[O-])cc2C)cc1OC,-10.6%
3,CC(C)(C)c1ccc(C(=O)Nc2ccc(NC(=O)c3ccco3)cc2)cc1,1.84%
4,Cc1c(CC(=O)N2CCN(C(=O)C3COc4ccccc4O3)CC2)c(=O)oc2cc(O)c(Cl)cc12 (centres unmarked),-52.4%
5,O=c1[nH]c(=S)n(-c2ccccc2Cl)c(O)c1C=NCCN1CCNCC1,16.1%
6,COc1ccc(C(=O)NCCS(=O)(=O)NCc2ccco2)cc1,10.8%
7,C=CCN(c1ccccc1)S(=O)(=O)c1cccc(C(=O)NCC(c2ccc(F)cc2)N2CCOCC2)c1 (centres unmarked),-29.6%
8,COc1ccccc1Nc1nc(N(C)c2ccccc2)nc(N)c1[N+](=O)[O-],14.4%
9,CCCNC(=O)Cn1cnc2sc(C(=O)N3CCC4(CC3)OCCO4)c(C)c2c1=O,13.9%
10,Cc1ccccc1Nc1nnc(SCc2cc(=O)n3ccsc3n2)s1,-22.9%
11,CCOC(=O)c1cc(-c2ccccc2)nc2c1c(C)nn2-c1ccccn1,-6.42%
12,O=C1S/C(=C\c2ccc(N3CCOCC3)o2)C(=O)N1Cc1c(F)cccc1Cl,0.112%
13,CCOC(=O)c1sc(NC(=S)NC(=O)C2CC2)cc1C,10.9%
14,COc1cc2c(=O)n(Cc3ccccc3)c(=O)n(CC(=O)C(C)(C)C)c2cc1OC,13.8%
15,CCCCn1c(C(C)O)nc2ccccc21 (centres unmarked),11%
16,COc1ccc(/C=C/c2ccccc2)cc1[C@H]1[C@@H]2C=CCC[C@@]2(C)C(=O)N1Cc1ccccc1,10.4%
17,CCCN1C(=O)/C(=C/c2ccc(N3CCOCC3)cc2)NC1=S,3.78%
18,CCOc1ccc(NC(=O)c2ccc(CC)s2)c([N+](=O)[O-])c1,33.4%
19,Cc1cc(C)cc(NC(=O)CCCN2C(=O)C(c3ccccc3)Oc3cccnc32)c1 (centres unmarked),-1.03%
20,COC(=O)c1cc(CN2CCN(c3ccccc3C)CC2)ccc1O.Cl,-16.4%
21,N=C1/C(=C\c2ccc(SCc3ccccc3)o2)C(=O)N=C2SC=NN12,29.2%
22,Oc1c(-c2cc(-c3ccco3)[nH]n2)ccc2ccccc12,13.7%
23,O=C(N/N=C/c1ccco1)c1cnccn1,7.7%
